Binding signal data for 31 sequences are collected here from article PMC12820563, “FoxP3 forms a head-to-head dimer in vivo and stabilizes its multimerization on adjacent microsatellites”.

The other results are listed elsewhere or left out.

The target of the assay is T1, MBP-FoxP1dN (Mus musculus, UniProt P58462 326-579).
T1 sequence: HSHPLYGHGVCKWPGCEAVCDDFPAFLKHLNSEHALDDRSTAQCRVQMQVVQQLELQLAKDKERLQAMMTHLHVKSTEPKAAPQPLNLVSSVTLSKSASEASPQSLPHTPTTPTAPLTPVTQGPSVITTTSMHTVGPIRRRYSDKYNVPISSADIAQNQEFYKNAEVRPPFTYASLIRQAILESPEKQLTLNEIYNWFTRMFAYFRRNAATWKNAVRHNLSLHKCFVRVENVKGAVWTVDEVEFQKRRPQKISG
Nature of the assay: PD-seq (MBP pull-down with sequencing); 20 mM Tris-HCl pH 7.5, 100 mM NaCl, 1.5 mM MgCl2, 0.4 uM protein, 0.1 uM dsDNA library, 30 min, room temperature, amylose pull-down; high values mean tight binding. The conditions noted are these: protein: recombinant; tags: His6-MBP; chain copies: 2; dsDNA, one strand shown. The gist of the method: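 Binding is given as reads-per-million enrichment, pull-down over input, with replicates pooled. The bait was an N-terminus-lacking mouse FoxP3 or FoxP1 fragment with a His6-MBP tag, expressed in E. coli and used at 0.4 µM with 0.1 µM Klenow-filled degenerate double-stranded DNA library for 30 min at room temperature in Tris pH 7.5 buffer with NaCl and MgCl2. Amylose resin pull-down with three washes was followed by proteinase K release, PCR barcoding and Illumina sequencing.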
Consider “GATGATTGTTCTCCCAGCTGATGAATTCGCCTTCTCGAGTAAACAAATTTTCCTAATCTTTCTGTTCAAGCGCCATCTAC”, for which the binding signal was 0.822 RPM ratio (pull-down/input).

In the case of “GATGATTGTTCTCCCAGCTGATGAATTGTAAATTTCGAGTAAACAAATTTTCCTAATCTTTCTGTTCAAGCGCCATCTAC”, the binding signal is 1.07 RPM ratio (pull-down/input).

As to “GATGATTGTTCTCCCAGCTGATGAATTAGAATATTCGAGTAAACAAATTTTCCTAATCTTTCTGTTCAAGCGCCATCTAC”, the binding signal was 1.01 RPM ratio (pull-down/input).

As for “GATGATTGTTCTCCCAGCTGATGAATTATCGAATTCGAGTAAACAAATTTTCCTAATCTTTCTGTTCAAGCGCCATCTAC”, the binding signal was 1.03 RPM ratio (pull-down/input).

Take “GATGATTGTTCTCCCAGCTGATGAATTGTTTTGGTCGAGTAAACAAATTTTCCTAATCTTTCTGTTCAAGCGCCATCTAC”: the binding signal was 2.02 RPM ratio (pull-down/input).

For the sequence “GATGATTGTTCTCCCAGCTGATGAATTAGTAGAGTCGAGTAAACAAATTTTCCTAATCTTTCTGTTCAAGCGCCATCTAC”, the binding signal is 0.99 RPM ratio (pull-down/input).

Turning to “GATGATTGTTCTCCCAGCTGATGAATTGGTTAAATCGAGTAAACAAATTTTCCTAATCTTTCTGTTCAAGCGCCATCTAC”, the binding signal was 1.17 RPM ratio (pull-down/input).

Take “GATGATTGTTCTCCCAGCTGATGAATTGTTGTGCTCGAGTAAACAAATTTTCCTAATCTTTCTGTTCAAGCGCCATCTAC”: the binding signal is 2.06 RPM ratio (pull-down/input).

On to “GATGATTGTTCTCCCAGCTGATGAATTAAACTGTTCGAGTAAACAAATTTTCCTAATCTTTCTGTTCAAGCGCCATCTAC”, for which the binding signal is 1.01 RPM ratio (pull-down/input).

Take “GATGATTGTTCTCCCAGCTGATGAATTTTGGTTGTCGAGTAAACAAATTTTCCTAATCTTTCTGTTCAAGCGCCATCTAC”: the binding signal is 1.24 RPM ratio (pull-down/input).

In the case of “GATGATTGTTCTCCCAGCTGATGAATTCCGTCCTTCGAGTAAACAAATTTTCCTAATCTTTCTGTTCAAGCGCCATCTAC”, the binding signal is 0.801 RPM ratio (pull-down/input).

“GATGATTGTTCTCCCAGCTGATGAATTATTTCCGTCGAGTAAACAAATTTTCCTAATCTTTCTGTTCAAGCGCCATCTAC”: the binding signal was 1.04 RPM ratio (pull-down/input).

Take “GATGATTGTTCTCCCAGCTGATGAATTCACTCGGTCGAGTAAACAAATTTTCCTAATCTTTCTGTTCAAGCGCCATCTAC”: the binding signal was 0.762 RPM ratio (pull-down/input).

For “GATGATTGTTCTCCCAGCTGATGAATTCTATTCCTCGAGTAAACAAATTTTCCTAATCTTTCTGTTCAAGCGCCATCTAC”, the binding signal is 0.893 RPM ratio (pull-down/input).

Turning to “GATGATTGTTCTCCCAGCTGATGAATTACGCTCGTCGAGTAAACAAATTTTCCTAATCTTTCTGTTCAAGCGCCATCTAC”, the binding signal was 0.996 RPM ratio (pull-down/input).

Turning to “GATGATTGTTCTCCCAGCTGATGAATTACTTCTCTCGAGTAAACAAATTTTCCTAATCTTTCTGTTCAAGCGCCATCTAC”, the binding signal is 0.995 RPM ratio (pull-down/input).

With “GATGATTGTTCTCCCAGCTGATGAATTGAGAATCTCGAGTAAACAAATTTTCCTAATCTTTCTGTTCAAGCGCCATCTAC”, the binding signal was 0.775 RPM ratio (pull-down/input).

For the sequence “GATGATTGTTCTCCCAGCTGATGAATTTTGAAACTCGAGTAAACAAATTTTCCTAATCTTTCTGTTCAAGCGCCATCTAC”, the binding signal is 0.95 RPM ratio (pull-down/input).

“GATGATTGTTCTCCCAGCTGATGAATTTTTCGCTTCGAGTAAACAAATTTTCCTAATCTTTCTGTTCAAGCGCCATCTAC”: the binding signal is 0.91 RPM ratio (pull-down/input).

On to “GATGATTGTTCTCCCAGCTGATGAATTCCTCCAGTCGAGTAAACAAATTTTCCTAATCTTTCTGTTCAAGCGCCATCTAC”, for which the binding signal was 0.839 RPM ratio (pull-down/input).

Take “GATGATTGTTCTCCCAGCTGATGAATTCTGAGACTCGAGTAAACAAATTTTCCTAATCTTTCTGTTCAAGCGCCATCTAC”: the binding signal was 0.757 RPM ratio (pull-down/input).

Turning to “GATGATTGTTCTCCCAGCTGATGAATTGAGCTTTTCGAGTAAACAAATTTTCCTAATCTTTCTGTTCAAGCGCCATCTAC”, the binding signal is 0.926 RPM ratio (pull-down/input).

Regarding “GATGATTGTTCTCCCAGCTGATGAATTCTCACGGTCGAGTAAACAAATTTTCCTAATCTTTCTGTTCAAGCGCCATCTAC”, the binding signal was 0.804 RPM ratio (pull-down/input).

“GATGATTGTTCTCCCAGCTGATGAATTCACGTCATCGAGTAAACAAATTTTCCTAATCTTTCTGTTCAAGCGCCATCTAC”: the binding signal was 0.991 RPM ratio (pull-down/input).

On to “GATGATTGTTCTCCCAGCTGATGAATTTGATACGTCGAGTAAACAAATTTTCCTAATCTTTCTGTTCAAGCGCCATCTAC”, for which the binding signal is 1.03 RPM ratio (pull-down/input).

Regarding “GATGATTGTTCTCCCAGCTGATGAATTCATTCTTTCGAGTAAACAAATTTTCCTAATCTTTCTGTTCAAGCGCCATCTAC”, the binding signal was 0.946 RPM ratio (pull-down/input).

In the case of “GATGATTGTTCTCCCAGCTGATGAATTATCGCAGTCGAGTAAACAAATTTTCCTAATCTTTCTGTTCAAGCGCCATCTAC”, the binding signal was 0.952 RPM ratio (pull-down/input).

Take “GATGATTGTTCTCCCAGCTGATGAATTTTACTCTTCGAGTAAACAAATTTTCCTAATCTTTCTGTTCAAGCGCCATCTAC”: the binding signal is 0.856 RPM ratio (pull-down/input).

Turning to “GATGATTGTTCTCCCAGCTGATGAATTTGTAAACTCGAGTAAACAAATTTTCCTAATCTTTCTGTTCAAGCGCCATCTAC”, the binding signal was 1.41 RPM ratio (pull-down/input).

Consider “GATGATTGTTCTCCCAGCTGATGAATTCTCTGCATCGAGTAAACAAATTTTCCTAATCTTTCTGTTCAAGCGCCATCTAC”, for which the binding signal was 1.15 RPM ratio (pull-down/input).

In the case of “GATGATTGTTCTCCCAGCTGATGAATTTGGCGTATCGAGTAAACAAATTTTCCTAATCTTTCTGTTCAAGCGCCATCTAC”, the binding signal was 0.959 RPM ratio (pull-down/input).
